The record followed here is the supplement of paper PMC11417369.

± gives the standard deviation of the averaged measurements. This is one part of the list.

The test deals with PfAP2-I AP2 domain 3 (GST-tagged). Kind of test: gcPBM binding intensity (ln(normalized median fluorescence intensity)); higher = stronger DNA binding. In a few lines:
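An Agilent 4 × 180k array carrying primer-extended double-stranded 36-bp intergenic genomic probes and negative controls received GST-tagged P. falciparum DNA-binding domains expressed in E. coli, about 25 μg on average, for 1 h. The binding buffer contained 1× PBS, 1% milk, 0.2 mg/ml BSA, 0.5% salmon testes DNA and 0.03% Triton X-100. Binding intensity is the top Masliner-normalised natural-log median intensity across replicate spots of either probe orientation, read after Alexa488 anti-GST antibody staining and a 488 nm scan.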
With “TATATATATATATACACACACACACCCATATATATA [CACACA_site2538]”, the “gcPBM binding intensity (ln)” value came out at 9.3 ± 0.49.
Consider “CATATTTGCACTTTCACACATAAATATATAACTATA [CACACA_site6016]”, for which the “gcPBM binding intensity (ln)” value amounted to 11 ± 0.89.
The same measure for “CATACATACAGATATACACACATATATAATAATATA [CACACA_site5477]”: 7.7 ± 0.38.
The figure for “TTTTTATTTTTGTAGTGTACTTTATTTTTTTTGTTT [XGTACX_site8887]” is 8.06 ± 0.4.
The figure for “TTTAAACAAGGATCCACACACCCCAAAAAAAAAAGA [CACACA_site680]” is 8.54 ± 0.057; for “GTCTATTCAAAAAAGTGTACGGACATATAAACATAC [XGTACX_site6516]” it is 8.46 ± 0.19; for “TTAGCTATGATATATACACACCAACGAACGAAGAAA [CACACA_site6657]” it is 8.03 ± 0.61.
Take “TATGGTGTAATTTAGTGTATTATATTATTTTGGTTG [GTGCAC_negctrl_site445]”: the “gcPBM binding intensity (ln)” value was found to be 7.99 ± 0.35.
The same measure for “TGCAGTCTGGAGAAAAGTACATAGTATCTGGTATCT [XGTACX_site2545]”: 7.83 ± 0.68; for “TTTTTTTTTTTTTTTGCACACAGGGTGTAGGACAAG [CACACA_site2842]”: 9.54 ± 0.47.
The same measure for “ATATATATATTCCACACACACACAAAAAAAAAAAAA [CACACA_site3648]”: 9.02 ± 0.28.
The figure for “CATTTGATAAGATACACACACAAGGAAAAAAATAAA [CACACA_site350]” is 7.91 ± 0.63.
Turning to “TATAATAATATTAACACACGTACAAAAGCAAACAAC [CACACA_site3494]”, the “gcPBM binding intensity (ln)” value was 8.94 ± 0.35.
The figure for “TTATAATATCTATATATCTTTTACATTTATAAGTTT [CACACA_negctrl_site1473]” is 7.59 ± 0.47; for “AAAAAAAAATAAATAAATATATATAATATTTATGTT [GTGCAC_negctrl_site520]” it is 7.34 ± 0.39; for “AAAAAGAAAAAACTTACACACATATATACAGACATG [CACACA_site550]” it is 7.82 ± 0.59.
The same measure for “TTATAATCCATAATTGCACACAATATATTCATATTT [CACACA_site3916]”: 8.79 ± 0.3; for “AATATACAATAAAGGTGTACACATATATGATGCAAG [XGTACX_site7607]”: 8.38 ± 0.45.
The same measure for “ATAAAATAAGATCTTTTTTTTTTTTTTTTCTTTTCT [XGTACX_negctrl_site73]”: 7.26 ± 0.59; for “AACAAATAAATAAATAAAAAGCAAATATGTCTATAT [GTGCAC_negctrl_site414]”: 7.78 ± 0.82; for “TGGTTAATATGTGAAAGTACATATTATATTAAAATG [XGTACX_site2636]”: 7.78 ± 0.5.
With “TACAGATAATATATTGCACACGTCAGAATAATATAG [CACACA_site5036]”, the “gcPBM binding intensity (ln)” value was 9.95 ± 0.34.
The figure for “TATAACTTTTTTATTACACACCTATGCAATATTATA [CACACA_site6570]” is 8.82 ± 0.67; for “TATATTTATTTATACACATGCATATTTTAAGGGCTC [TGCATGCA_site885]” it is 7.86 ± 0.54.
In the case of “ATTTATTTATTTATTTGTACATATAAATATATCAAA [XGTACX_site7383]”, the “gcPBM binding intensity (ln)” value was 8.06 ± 0.82.
The same measure for “AAAGATGTTATATATATGTATATATATATGTAATAT [TGCATGCA_negctrl_site386]”: 7.64 ± 0.41; for “CATATAATTATATATCGTACATATTAATATAATTAC [XGTACX_site401]”: 7.71 ± 0.42; for “AGTATACAGATATATACACACATATATTTATTTATA [CACACA_site6279]”: 7.56 ± 0.47.
The figure for “AGATATAGGAAAATAATATATATATATTTTTTTTTT [CACACA_negctrl_site461]” is 7.27 ± 0.44.
The figure for “ATATATATATATATATGTACTTATAAGGTATATTTA [XGTACX_site3327]” is 9.35 ± 0.52; for “CCAACATTTTTTAGAAGTACATTTTTATATTTATTA [XGTACX_site5179]” it is 7.59 ± 0.24; for “AAATAAAAACATAACAGTACAGTTAACATTTTTATA [XGTACX_site3479]” it is 7.41 ± 0.54.
As for “TATATATATATATATGTACACACATATATACCTTTC [CACACA_site8854]”, the “gcPBM binding intensity (ln)” value is 9.57 ± 0.33.
The same measure for “TGTAATAATCTTACATGTACATACATATATTATATA [XGTACX_site4012]”: 7.97 ± 0.23; for “GATGGAAGGTGAAAGCGTACTTATTATAGTAATATA [XGTACX_site303]”: 7.88 ± 0.87.
The same measure for “AGGTACTTTTTTAAAACACACATATAATATATACAC [CACACA_site1065]”: 8.15 ± 0.49.
For the sequence “TACATTCATGTGTATTGTACAAACTATTTTATAATA [XGTACX_site7744]”, the “gcPBM binding intensity (ln)” value amounted to 7.61 ± 0.49.
The same measure for “TACATATTTTTTATGTGTACATATTTTTTATGTGTA [XGTACX_site443]”: 7.775 ± 0.049; for “ACAATCCTAACGACATGTACAAATATATATATTTTT [XGTACX_site7335]”: 7.85 ± 0.59; for “TATATAATATATATAGTGCATAAGTTCAAAAGAATA [GTGCAC_site9805]”: 9.95 ± 0.16.
The figure for “GCATATTTTATAATTTTACACACCATATAAAATAAT [CACACA_site8904]” is 8.3 ± 0.51; for “AAACAAAGAAAGAACACACATACACAATATACCTAC [CACACA_site2835]” it is 8.03 ± 0.64.
On to “ATATATGTGTATGTATGTACTCATTTTTGTATATAT [XGTACX_site490]”, for which the “gcPBM binding intensity (ln)” value came to 7.83 ± 0.38.
For “TTATATATTTATATTTGTACGTATAAATTTTTTTTT [XGTACX_site2833]”, the “gcPBM binding intensity (ln)” value amounted to 7.71 ± 0.15.
Turning to “TATTTTGAAAAAGTTGCACACAAAATTTAAAAAAAA [CACACA_site8470]”, the “gcPBM binding intensity (ln)” value was 8.34 ± 0.26.
In the case of “CATTTAAATTATAAGTGTACACGATCATATTTCATC [XGTACX_site349]”, the “gcPBM binding intensity (ln)” value came out at 8.05 ± 0.69.
“ATAATGATATATTATAAACACACAAAGATGAATATA [CACACA_site8914]”: the “gcPBM binding intensity (ln)” value was determined as 7.72 ± 0.52.
The figure for “GTTATAGAAGCATTCACACACACACCCACATACACA [CACACA_site1465]” is 8.535 ± 0.049.
The figure for “TTACATAATATATGTACACACGCAAATACTTAGAAT [CACACA_site320]” is 7.91 ± 0.55; for “AAACGATTACTGTGTACACACATAGTTATAAACATA [CACACA_site5195]” it is 8.04 ± 0.42; for “GAATGTTAACGTTGCACACAAAAAAAAAGTATACAT [CACACA_site2415]” it is 8.4 ± 0.43.
The same measure for “AGGATATGCAGACACACACACATATATATATATATA [CACACA_site2201]”: 9.46 ± 0.4; for “TTTTTTAATAATAGGAAAATGAATATTATATCGAAT [TGCATGCA_negctrl_site543]”: 7.7 ± 0.54.
Consider “TTTTTTTTTTTTTCAAGTACATAACTTACCCCTTTT [XGTACX_site6207]”, for which the “gcPBM binding intensity (ln)” value came out at 8.12 ± 0.57.
The same measure for “TTATATGCATAAAAACGTACAAAAATGTATTCATGT [XGTACX_site2215]”: 8.06 ± 0.52; for “CCGTTGAACATATATGCACACACATAAAATAAAAAA [CACACA_site8761]”: 9.48 ± 0.36; for “ATATTTTTTTTTTTTTGTACATATATCATTATATAT [XGTACX_site866]”: 7.84 ± 0.52.
As for “TTTTTGTCTGCATACGCACACACGTGTACCATCTTA [CACACA_site1173]”, the “gcPBM binding intensity (ln)” value stood at 8.68 ± 0.63.
The same measure for “TGGTTACTGTCATTAGTTATTTCTTGTTGACAATTA [CACACA_negctrl_site416]”: 7.57 ± 0.61; for “AATATTTATATTTACACACACATAATACCTATATGT [CACACA_site6167]”: 7.83 ± 0.42.
The same measure for “TAGATACATAAAAGTGGTACATATATATATATATAT [XGTACX_site6263]”: 9.49 ± 0.3; for “TGGAAATTCTCAGGAGTGCATATTTGCAGTTTACGT [GTGCAC_site9768]”: 9.99 ± 0.33; for “TTTGTTGACGGACACACACACATACAGATATATATA [CACACA_site5292]”: 8.24 ± 0.38.
The figure for “ATGGTTAAAAAAAGCATACACACTATCCTCTTTGCT [CACACA_site2552]” is 7.75 ± 0.76; for “ATAATAAATTATTATGTACACACATAATAGTATATA [CACACA_site8538]” it is 7.79 ± 0.16; for “AAAATATATTCAACTTGTACATATATATATATATAT [XGTACX_site7629]” it is 9.51 ± 0.58.
Take “TTTTTTTTTTGCACGTGTACATAAAAATATATATAT [XGTACX_site3116]”: the “gcPBM binding intensity (ln)” value was determined as 9.935 ± 0.021.
The same measure for “TTTTTGTAATGACACACACACAAACAGAAAAAATAA [CACACA_site7062]”: 8.02 ± 0.42.
With “TTATATATTTTGATTGCACACAGAATTTAAATCATG [CACACA_site8735]”, the “gcPBM binding intensity (ln)” value came out at 9.02 ± 0.38.
The figure for “ATATATGTGCTAAAATGTACATAGTATAATATATTT [XGTACX_site1949]” is 8.07 ± 0.48; for “TTTAATCATTTTAGCTTACACACAAAATTTTGTTAT [CACACA_site2938]” it is 7.91 ± 0.68.
The same measure for “ATATTTAAGATTTAATCACACACATATATATTATAT [CACACA_site8946]”: 7.7 ± 0.42; for “ATAAAATAAAGGAAAAATATTAAGTTTTAAGAAAAT [CACACA_negctrl_site1066]”: 7.6 ± 0.76.
For “TTCTCACTTTTAAATTTTATTCAAAAATAAGGAAAG [XGTACX_negctrl_site444]”, the “gcPBM binding intensity (ln)” value was found to be 7.58 ± 0.36.
The same measure for “GAGAGTAAAACAAATATACACACCATAAAGTTATAA [CACACA_site1686]”: 7.63 ± 0.5; for “ATTTCGTTCTTTTATGCACACTCAACATATAAATTA [CACACA_site8322]”: 10.4 ± 0.37; for “ATATATATATATAAATGTACATATGTATAATTCATA [XGTACX_site6679]”: 9.04 ± 0.28.
Regarding “TACATAAACATTTATACACACATTATGTATACATAT [CACACA_site405]”, the “gcPBM binding intensity (ln)” value worked out at 7.91 ± 0.33.
The figure for “GGATTTTTCGAATCATGTACATATTTAATTAAAAAA [XGTACX_site7939]” is 7.78 ± 0.47; for “TATTTTTCCATATGCACACACACCGTATCTAGAATA [CACACA_site6654]” it is 9.31 ± 0.16; for “AACTTTGGCAAACACACACACACACCCACACCCACA [CACACA_site588]” it is 8.21 ± 0.3.
For “TAGAATGTATGTAGTGCACACCTCTATAATATATTA [CACACA_site1873]”, the “gcPBM binding intensity (ln)” value worked out at 11.3 ± 0.6.
The same measure for “ATAATAATAAAGTATGCATGCATATAATATAATATA [TGCATGCA_site796]”: 7.97 ± 0.63.
The figure for “TTTTTATTGCAATACTTATATTTTTTTATGATTAAA [TGCATGCA_negctrl_site147]” is 9.03 ± 0.38.
The same measure for “ATGATAATTTTTTTCTCACACACAAATATTTTAATC [CACACA_site3665]”: 7.72 ± 0.63.
Take “CAATAATATATATATTGTACATTTTTTTTTATTATT [XGTACX_site3149]”: the “gcPBM binding intensity (ln)” value is 7.62 ± 0.41.
The same measure for “AAAGATTCTTTGAATTGTACAAATATATTTACTCAC [XGTACX_site8772]”: 7.67 ± 0.59; for “TATATTATTTTCTTTTGTACACATATATATCAGTGT [XGTACX_site664]”: 7.89 ± 0.64.
